In all, about 360,000 compounds went through this assay and about 25,000 (6.9%) were called active. Inconclusive means that the source gave no clear call. Such entries were picked first, then a sample of the others. The call rests on the fitted dose curve; in most records, active means well fitted inhibition curve with a large enough effect; inconclusive means small, poorly fitted or top-dose-only effect; inactive means flat fitted curve, though single readings scatter. Potencies of inconclusive entries are doubtful fits and often do not repeat.
What follows are compounds tested against Luciferin 4-monooxygenase (Photinus pyralis) (UniProt P08659) (assay: qHTS profiling assay for firefly luciferase inhibitor/activator using purifed enzyme and Km concentrations of substrates (counterscreen for miR-21 project)). Conditions: purified FLuc, luminescence inhibition; series mostly up to 57.5 µM; activity change, negative = inhibition: at the top concentration.
Sequence of UniProt P08659 (P08659 whole entry, looked up): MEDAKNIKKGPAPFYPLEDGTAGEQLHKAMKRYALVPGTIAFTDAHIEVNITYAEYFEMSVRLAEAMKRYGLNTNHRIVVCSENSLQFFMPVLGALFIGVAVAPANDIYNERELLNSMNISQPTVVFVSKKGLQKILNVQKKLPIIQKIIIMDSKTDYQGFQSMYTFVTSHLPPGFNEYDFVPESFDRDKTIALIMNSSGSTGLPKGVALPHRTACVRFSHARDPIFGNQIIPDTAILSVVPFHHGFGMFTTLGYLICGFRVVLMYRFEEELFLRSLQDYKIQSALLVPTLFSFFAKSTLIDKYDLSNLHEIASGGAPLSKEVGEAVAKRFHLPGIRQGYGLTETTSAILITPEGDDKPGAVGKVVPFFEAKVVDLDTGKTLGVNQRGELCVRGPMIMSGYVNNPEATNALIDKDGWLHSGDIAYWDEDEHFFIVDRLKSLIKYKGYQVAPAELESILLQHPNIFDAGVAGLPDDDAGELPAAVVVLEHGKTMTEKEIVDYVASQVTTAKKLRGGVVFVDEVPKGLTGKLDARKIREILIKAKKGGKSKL
How it was run: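 Biochemical qHTS of compounds, final roughly 60 µM downward over six points, against 10 nM purified firefly luciferase using Km concentrations of substrates (10 uM D-luciferin, 10 uM ATP) in Tris acetate pH 7.5 buffer; luminescence output.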
For `Cc1cc2nc(CSc3ccc(Cl)cc3)cc(=O)n2[nH]1`, the Potency was active: 16.9 µM.
`CCc1nnc(SC(CC)C(=O)NCCOC)c2cc3occc3n12` (centres undefined) was tested, and the “activity change, negative = inhibition” value was inactive: -7.85%.
`CCCN(CC(=O)Nc1ccccc1OC)C(=O)CCCN1C(=O)c2ccccc2C1=O` was tested, and the “activity change, negative = inhibition” value was inactive: 4.44%.
With `CCc1nn2c(=O)cc(COC(=O)c3cccc(NC(=O)COc4ccccc4F)c3)nc2s1` the Potency was inconclusive: 12 µM [inhibitor, partial curve].
For `Cc1ccc(C)c(NC(=O)Cn2cc(S(=O)(=O)N3CCCC3)c(S(=O)(=O)N3CCCC3)c2)c1`, the “activity change, negative = inhibition” value was inactive: -1.56%.
With `CCC[C@@H]1Cc2ccccc2N1C(C)=O` the “activity change, negative = inhibition” value was inactive: 2.41%.
For `COc1cc(NC(=O)CN(C)S(=O)(=O)c2ccc3c(c2)CCCC(=O)N3)cc(OC)c1OC`, the “activity change, negative = inhibition” value was inactive: -11.9%.
In the case of `N#CC1=C(O)CCCn2c1nc1ccccc1c2=O`, the Potency is reported as inconclusive: 30.1 µM [inhibitor, single point].
With `Cc1ccc(CCNC(=O)Cn2ncc3c(=O)oc4ccccc4c32)cc1` the “activity change, negative = inhibition” value was inactive: -6.94%.
With `C#CCSc1[nH]c(=O)cc(C)c1C#N` the Potency was inconclusive: 26.9 µM [inhibitor, partial curve, poor fit].
For `C=CCn1cc(/C=N/N2C(=O)C3C4C=CC(C4)C3C2=O)c2ccccc21` (centres undefined), the Potency was inconclusive: 19 µM [inhibitor, partial curve].
In the case of `O=C(Nc1ccc(F)cc1)c1ccc2ncsc2c1`, the Potency is reported as active: 23.9 µM.
In the case of `Cc1ccccc1CC1(CO)CCCN(C(=O)CCN2CCCO2)C1` (centres undefined), the Potency is reported as inconclusive: 37.9 µM [inhibitor, partial curve, poor fit].
`Cn1c(=O)oc2cc(NC(=O)CCl)ccc21` was tested, and the “activity change, negative = inhibition” value was inactive: -0.0783%.
In the case of `O=C(Cn1c2ncccc2c(=O)n1-c1ccccc1)Nc1cccc(C(F)(F)F)c1`, the “activity change, negative = inhibition” value is reported as inactive: -5.17%.
In the case of `c1csc(C2Nc3ccccc3-c3nc4ccccc4n32)c1` (centres undefined), the Potency is reported as inconclusive: 26.9 µM [inhibitor, single point].
For `C/C(=N\NC(=S)NC1CCCCC1)c1cccs1`, the Potency was inconclusive: 13.5 µM [inhibitor, partial curve, poor fit].
In the case of `COc1ccc(CCNC(=O)c2oc3ccccc3c2C)cc1`, the Potency is reported as active: 19 µM.
With `Cc1ccc(C)c(NC(=O)N2CCc3ccccc3C2)c1` the Potency was inconclusive: 21.3 µM [inhibitor, single point].
In the case of `CCOc1ccc(-c2nc(CSCC(=O)NCCc3ccccc3)c(C)o2)cc1`, the Potency is reported as inconclusive: 23.9 µM [inhibitor, partial curve].
With `Cc1ccc2oc(C(=O)NCC(c3ccco3)N(C)C)c(C)c2c1` (centres undefined) the Potency was inconclusive: 26.9 µM [inhibitor, single point].
`COc1ccccc1CNC(=O)CNCCc1ccc(OC)c(OC)c1` was tested, and the “activity change, negative = inhibition” value was inactive: 1.4%.
`CCSc1nnc(NC(=O)CSc2nncc(=O)n2N)s1` was tested, and the “activity change, negative = inhibition” value was inactive: -11.1%.
With `CCOC(=O)c1c(NC(=O)C2C3CCC(O3)C2C(=O)O)sc2c1CCCC2` (centres undefined) the Potency was inconclusive: 21.3 µM [inhibitor, partial curve].
With `Cc1ccc(-c2csc(=S)[nH]2)cc1` the Potency was inconclusive: 19 µM [inhibitor, partial curve].
In the case of `O=C(/C=C/c1ccc(F)cc1)Nc1ccc(S(=O)(=O)Nc2ncccn2)cc1`, the Potency is reported as active: 16.9 µM.
For `C=CCOc1ccc(CNc2ccc3[nH]c(=O)[nH]c3c2)cc1OC`, the Potency was inconclusive: 37.9 µM [inhibitor, partial curve, poor fit].
With `CCOC(=O)c1c[nH]n(-c2ccccc2)c1=O` the Potency was inconclusive: 21.3 µM [inhibitor, partial curve, poor fit].
For `Cc1nn(-c2ccccc2)c(C)c1/C=N/NC(=O)c1cc(O)cc(O)c1`, the Potency was active: 19 µM.
In the case of `Cc1cc(C(=O)Nc2cccc(C(=O)O)c2)c(C)o1`, the Potency is reported as active: 10.7 µM.
`Cc1c(Br)c(C(=O)NNC(=O)c2ccc(C(C)(C)C)cc2)nn1C` was tested, and the Potency was inconclusive: 15.1 µM [inhibitor, partial curve].
With `CCCC(=O)Nc1nc2c(s1)CC(C(C)(C)C)CC2` (centres undefined) the Potency was inconclusive: 10.7 µM [inhibitor, partial curve].
With `CCSc1nnc(NC(=O)Nc2cccc(C)c2)s1` the Potency was active: 10.7 µM.
In the case of `Cc1ccc(-n2c(C)cc(C(=O)COC(=O)C3=NNC(=O)CC3)c2C)cc1`, the Potency is reported as active: 16.9 µM.
`CCOC(=O)CSc1nc2cc(OC)ccc2cc1C#N` was tested, and the Potency was inconclusive: 15.1 µM [inhibitor, partial curve].
For `COC(=O)c1cnn(-c2cc(Oc3ccccc3)ncn2)c1N`, the Potency was inconclusive: 3.38 µM [inhibitor, partial curve, poor fit].
For `COc1ccc(-c2csc(C)n2)cc1OC`, the Potency was inconclusive: 37.9 µM [inhibitor, partial curve, poor fit].
In the case of `Cc1ccc(-c2[nH]n3c(=O)c4c(nc3c2C)CCCC4)cc1`, the Potency is reported as inconclusive: 15.1 µM [inhibitor, partial curve].
With `COc1cc(C(=O)Oc2ccccc2/C=N/NC(=O)c2ccc(Cl)cc2Cl)cc(OC)c1OC` the Potency was inconclusive: 15.1 µM [inhibitor, partial curve].
`CCOc1ccccc1-n1nnnc1SCc1nc2ccccc2s1` was tested, and the Potency was active: 13.5 µM.
`Cc1ccc(C)c(OCc2cc(C(=O)N(C)Cc3nccs3)no2)c1` was tested, and the Potency was inconclusive: 37.9 µM [inhibitor, single point].
For `Cc1cc(O)c(C(c2ccccc2)N2CCN(c3ccccc3F)CC2)c(=O)n1Cc1ccco1` (centres undefined), the “activity change, negative = inhibition” value was inactive: -13.9%.
In the case of `COc1cc(C(=O)OCC(=O)NC23CC4CC(CC(C4)C2)C3)cc(OC)c1OC`, the “activity change, negative = inhibition” value is reported as inactive: -0.412%.
With `CCCNC(=O)COC(=O)c1ccccc1C(=O)c1ccc(Cl)c([N+](=O)[O-])c1` the “activity change, negative = inhibition” value was inactive: 2.14%.
`COc1ccc(NC(=O)c2cc3ccccc3oc2=O)c(OC)c1` was tested, and the Potency was inconclusive: 3.01 µM [inhibitor, full curve].
`CCN(CC)S(=O)(=O)c1ccc(O)c(NC(=O)c2cc(-c3cc(OC)c(OC)c(OC)c3)nc3ccccc23)c1` was tested, and the “activity change, negative = inhibition” value was inactive: -6.64%.
In the case of `Cc1[nH]n(-c2ccccc2)c(=O)c1-c1cccc(Cl)c1`, the Potency is reported as inconclusive: 21.3 µM [inhibitor, partial curve].
In the case of `Cc1ccccc1-n1ncc2c1CC(C)(C)CC2NC(=O)CCN1Cc2ccccc2C1=O` (centres undefined), the “activity change, negative = inhibition” value is reported as inactive: 5.43%.
With `COCCNc1oc(-c2ccc(Cl)cc2)nc1C#N` the Potency was active: 10.7 µM.
In the case of `N#C/C(=C\c1ccccc1[N+](=O)[O-])c1nc(C2CC2)cs1`, the Potency is reported as inconclusive: 30.1 µM [inhibitor, partial curve, poor fit].
For `OCC1(CCc2ccccc2)CCN(Cc2ccccc2Cl)CC1`, the “activity change, negative = inhibition” value was inactive: 0.611%.
For `O=C(Nc1ccc(N2CCN(C(=O)c3ccco3)CC2)cc1)c1ccc2c(c1)OCO2`, the “activity change, negative = inhibition” value was inactive: -0.104%.
With `C=CCSc1ncc(C(=O)OCC)c(N)n1` the Potency was inconclusive: 21.3 µM [inhibitor, single point].
For `CCOc1ccc(NC(=O)c2cnc3scc(C)n3c2=O)cc1`, the Potency was inconclusive: 5.36 µM [inhibitor, full curve].
For `COc1ccc(Nc2ncnc3sc(-c4ccccc4)cc23)cc1`, the Potency was inconclusive: 23.9 µM [inhibitor, partial curve].
`CC1Cc2ccccc2N1C(=O)COC(=O)c1cccnc1Cl` (centres undefined) was tested, and the Potency was inconclusive: 37.9 µM [inhibitor, partial curve, poor fit].
`COC(=O)c1sccc1N/N=C/c1ccc(OC)c(OC)c1OC` was tested, and the Potency was active: 15.1 µM.
For `CCOC(=O)N1CCN(C(=O)COC(=O)c2oc3ccc(OC)cc3c2C)CC1`, the Potency was inconclusive: 26.9 µM [inhibitor, partial curve, poor fit].
`COc1ccc(S(=O)(=O)Nc2cccc(-c3ccc(N4CCCC4)nn3)c2)c(OC)c1` was tested, and the Potency was inconclusive: 12 µM [inhibitor, partial curve].
In the case of `COc1ccccc1-n1c(SCC(=O)c2ccc(O)cc2O)nc2cc([N+](=O)[O-])ccc21`, the Potency is reported as inconclusive: 23.9 µM [inhibitor, partial curve, poor fit].
For `O=C(NNC(=S)Nc1ccc(Br)cc1)c1ccccc1`, the Potency was inconclusive: 37.9 µM [inhibitor, partial curve, poor fit].
For `C=CCOc1ccc(C2c3c(oc4ccccc4c3=O)C(=O)N2CCCN2CCOCC2)cc1` (centres undefined), the “activity change, negative = inhibition” value was inactive: 3.98%.
`CSc1ncccc1C(=O)OCC(=O)c1[nH]c(C)c(C(C)=O)c1C` was tested, and the Potency was inconclusive: 12 µM [inhibitor, partial curve, poor fit].
In the case of `COc1ccc(/C=C/C(=O)c2ccccc2)cc1COc1ccc(F)cc1`, the Potency is reported as active: 9.53 µM.
In the case of `O=C(CCCN1C(=O)S/C(=C\C=C\c2ccccc2)C1=O)Nc1ccc(O)cc1`, the Potency is reported as inconclusive: 7.57 µM [inhibitor, partial curve, poor fit].
`COc1ccc(Cn2c(C(=O)O)c(CNCc3ccccc3F)c3ccc(OC)cc32)cc1` was tested, and the “activity change, negative = inhibition” value was inactive: 1.82%.
For `O=C(CC(c1ccccc1)c1cc(Cl)ccc1O)NCCCN1CCOCC1` (centres undefined), the “activity change, negative = inhibition” value was inactive: -0.957%.
`O=C(COC(=O)Cc1ccccc1[N+](=O)[O-])NCc1ccc(Cl)cc1` was tested, and the “activity change, negative = inhibition” value was inactive: 4.32%.
With `O=C(Nc1cc(-c2nc3cc(Cl)ccc3o2)ccc1Cl)c1ccco1` the Potency was inconclusive: 12 µM [inhibitor, partial curve].
For `Cc1ccc(C)c(C(=O)CCC(=O)N2CCN(c3ncccn3)CC2)c1`, the Potency was inconclusive: 30.1 µM [inhibitor, partial curve, poor fit].
For `COc1cc(Cl)c(S(=O)(=O)NCCc2c(C)[nH]c3c(C)cccc23)cc1Cl`, the “activity change, negative = inhibition” value was inactive: -1.61%.
`O=C(NCCc1csc(-c2ccccc2)n1)c1c(F)cccc1Cl` was tested, and the Potency was inconclusive: 30.1 µM [inhibitor, partial curve, poor fit].
For `O=C(Nc1ccc2c(c1)OCO2)c1cccs1`, the Potency was active: 13.5 µM.
With `COC(=O)c1ccc(NC(=O)CC2C(=O)N(c3cccc(OC)c3)C(=O)N2Cc2cccs2)cc1` (centres undefined) the Potency was inconclusive: 37.9 µM [inhibitor, partial curve, poor fit].
Further: nearly all actives have a fitted effect of over 55% in size.
Potency means the concentration at half of the fitted maximal effect; tags describe the fitted curve by direction and shape.
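Wherever activity change, negative = inhibition is given: plate controls were vehicle for no effect and reference inhibitor for full effect.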
